Assay results as given in the supplement of paper PMC3334620.
The full ranking holds about 33,000 sequences; the median of “E-score (-0.5 to 0.5)” is about -0.043, and the highest 2% start at about 0.37. The list shows a part of the results.

Target: T1, Upc2 (UniProt Q12151)
T1 sequence: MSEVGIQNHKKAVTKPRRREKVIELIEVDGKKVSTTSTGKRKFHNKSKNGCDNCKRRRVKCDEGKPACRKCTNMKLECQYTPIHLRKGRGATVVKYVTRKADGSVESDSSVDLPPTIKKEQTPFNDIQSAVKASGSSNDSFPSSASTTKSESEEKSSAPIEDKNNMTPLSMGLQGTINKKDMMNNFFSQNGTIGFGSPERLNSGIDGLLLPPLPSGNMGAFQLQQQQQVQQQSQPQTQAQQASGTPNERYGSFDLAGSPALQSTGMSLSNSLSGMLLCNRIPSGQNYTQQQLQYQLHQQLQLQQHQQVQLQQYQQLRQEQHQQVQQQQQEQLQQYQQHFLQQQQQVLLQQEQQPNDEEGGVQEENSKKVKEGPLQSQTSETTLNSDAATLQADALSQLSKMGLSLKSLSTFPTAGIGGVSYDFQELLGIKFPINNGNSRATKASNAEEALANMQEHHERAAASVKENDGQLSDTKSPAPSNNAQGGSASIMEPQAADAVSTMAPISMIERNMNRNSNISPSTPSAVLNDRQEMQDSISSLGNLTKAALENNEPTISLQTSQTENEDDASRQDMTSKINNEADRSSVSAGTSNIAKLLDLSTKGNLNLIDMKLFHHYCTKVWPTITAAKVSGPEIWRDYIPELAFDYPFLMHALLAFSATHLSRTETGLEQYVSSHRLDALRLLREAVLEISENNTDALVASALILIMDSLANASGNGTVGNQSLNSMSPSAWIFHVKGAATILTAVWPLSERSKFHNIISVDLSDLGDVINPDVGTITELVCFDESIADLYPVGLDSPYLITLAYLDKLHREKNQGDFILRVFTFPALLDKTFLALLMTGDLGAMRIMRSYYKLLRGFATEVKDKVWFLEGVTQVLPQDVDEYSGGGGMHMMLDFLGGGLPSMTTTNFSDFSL
Assay: PBM E-score (8-mer binding enrichment) (E-score (-0.5 to 0.5)); higher = stronger / more preferred TF binding; most listed sequences are background and not binding sites
Details: protein concentration: 200 nM; construct: GST-full length
How it was run: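 Universal all-10-mer Agilent arrays, double-stranded by primer extension on fresh or once-stripped slides, were probed with about 100-200 nM GST-tagged yeast transcription factors made by PURExpress. Fluorescent anti-GST detected bound protein, and masliner normalised the scans. E-scores from the Universal PBM Analysis Suite were given to each ungapped eight-base word pooled with its reverse complement.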

| Sequence | PBM E-score |
| --- | --- |
| CGAGCAAG | 0.129 |
| TCTGCGAA | -0.155 |
| GCGGGGCA | -0.0643 |
| CAGCTTTC | -0.19 |
| AACAGAAG | -0.23 |
| ACTCAGTA | 0.18 |
| GACTCAGC | -0.198 |
| CCACAAGC | -0.152 |
| CAACGCCG | -0.0963 |
| CCGTGTAA | -0.0233 |
| CTACTCAA | -0.0687 |
| AAGGCACC | -0.24 |
| ACTCCGAG | -0.14 |
| GCATCTAC | -0.0234 |
| CTGCTCTC | -0.0481 |
| GACGACCC | -0.207 |
| CGCCGTAC | 0.408 |
| ACAAAACC | 0.174 |
| GACAGATC | -0.166 |
| AACTCCCT | -0.131 |
| CATTTATC | 0.00114 |
| ACCTCGGG | 0.0963 |

| Sequence | PBM E-score |
| --- | --- |
| GAGGGTAA | -0.00941 |
| ACTCAATG | -0.103 |
| ACGATTCT | 0.268 |
| GTTTTATA | 0.271 |
| ACTGTAGA | -0.0556 |
| CGGGGTAC | 0.183 |
| CAGGTCGC | 0.0637 |
| TCAAATAA | 0.0535 |
| ATTTCTCA | -0.0957 |
| ATGGGTTC | 0.00547 |
| AGGGTATA | 0.102 |
| GACCCAAC | -0.142 |
| CCAAGGCA | -0.0817 |
| ACCGTGTC | -0.215 |
| ACACTTCC | -0.196 |
| AATGTCGC | 0.0832 |
| GGGTCGAC | -0.159 |
| CTCCGGCA | 0.0044 |
| CAGCGTAC | 0.338 |
| CTCCTTTC | -0.28 |
| AAGCTTTA | 0.166 |
| ATATAGGA | -0.0231 |

| Sequence | PBM E-score |
| --- | --- |
| GGTCGCAA | 0.126 |
| ATCACTTG | -0.0789 |
| GCGGGGGA | -0.226 |
| CCATCACC | -0.122 |
| ATGTGATC | 0.167 |
| CGTATAAA | 0.477 |
| GCCTATCA | -0.187 |
| CTTCGTTC | 0.457 |
| CGAGACCC | 0.164 |
| CGTGTTCC | 0.0794 |
| GCGTCTCC | -0.101 |
| GAGACGAA | 0.208 |
| ACCCAACC | -0.00068 |
| TCGGCAGA | -0.167 |
| AAGAACTT | 0.061 |
| AGGTGCCA | -0.164 |
| CTTGATGC | -0.232 |
| AGATGGAG | -0.111 |
| ATAATGAT | -0.0981 |
| GAAAAAAC | 0.161 |
| CTTTCTCA | 0.0661 |
| ATACCACA | 0.0024 |

| Sequence | PBM E-score |
| --- | --- |
| ATACGGTA | 0.406 |
| GCGGTAGC | -0.0764 |
| CACCTGGC | -0.284 |
| GAGTAGGC | -0.18 |
| GTATCTTA | 0.232 |
| CCAAATAA | -0.00161 |
| ATGGTATG | -0.24 |
| AAATCAAG | 0.0576 |
| ACATGACA | -0.0942 |
| ACCTAACC | 0.105 |
| CCAATCTC | -0.145 |
| AGGGGGAC | -0.164 |
| ACCGCTTC | -0.203 |
| CCAGGTGA | -0.158 |
| TAGGGGGA | -0.194 |
| AACTGGTA | -0.0126 |
| TTTCAAAA | -0.0236 |
| TCAGCAGA | -0.0227 |
| AGTACACT | 0.0402 |
| GTTCCGAA | 0.192 |
